# Measurements from the supplement of paper PMC4466236.
# Whole data set: some 33,000 sequences, median “E-score (dimensionless, -0.5 to 0.5)” near -0.058, cut for the highest 2% near 0.35. The list shows a part of the results.
# Test system: MvaT
# Assay: PBM 8-mer E-score (mean of HK and ME arrays) (E-score (dimensionless, -0.5 to 0.5)); higher = stronger relative binding preference; most listed sequences are background and not binding sites
# How it was run: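 Reported values are rank-based E-scores, taken as the mean of two universal arrays and parsed with a custom script. Each 8-mer score falls between -0.5 and 0.5. The arrays, ME and HK, were double-stranded 60-mers with a constant 25-mer primer region and a variable 35-mer region covering all 8-mers. They were probed, by an earlier protocol, with full-length P. aeruginosa MvaT carrying an N-terminal glutathione S-transferase fusion.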
row,Sequence,PBM 8-mer E-score
1,GTACTCTA,0.068
2,CGGTAGAC,-0.255
3,AATTGCGA,0.231
4,AACGTCCT,-0.224
5,AGACAAGA,0.0932
6,TAACACAA,0.295
7,AGCTTGGA,-0.0712
8,ACAGGTCC,-0.217
9,AATATCAA,0.338
10,GCATTATA,0.309
11,ATAAATAG,0.358
12,CTGCAGAC,-0.0289
13,CAGAATAA,0.234
14,AGGCCTAG,-0.103
15,AGTTCAAA,0.268
16,AACCCTAT,-0.0198
17,GCTCAATA,0.134
18,CCAGATAC,-0.0554
19,GGTGCGAC,-0.205
20,CAATCTAC,0.032
21,CCGGCATA,0.0353
22,CGTCTAAA,0.0417
23,GCTCGGCA,-0.252
24,CTGAGTAC,-0.0958
25,GTCTATTA,0.253

row,Sequence,PBM 8-mer E-score
1,CTTTAGAC,0.0841
2,AATTCCCC,0.0365
3,CGTGGTTC,-0.229
4,CACCCGTG,-0.135
5,CTAGGAAG,-0.173
6,TCCTGTCA,-0.158
7,TCAGTAGA,-0.0609
8,AAGTACAT,0.261
9,GGAATGAA,-0.0881
10,ACTGCCCC,-0.177
11,AAGTTCGC,0.228
12,CCGTAATC,-0.0203
13,CACTTGGC,-0.0214
14,CCTATTCA,-0.0217
15,AACTCCCC,-0.179
16,TCTACTCA,-0.00357
17,CCTTAGAG,-0.27
18,CCGTCGTA,-0.106
19,CCTCAGCA,-0.33
20,GAGAGGAC,-0.214
21,AGGCGATG,-0.274
22,CGAACTCG,-0.0897
23,TTATAAAA,0.399
24,GAACTGTC,-0.103
25,ACTCGCAG,-0.101

row,Sequence,PBM 8-mer E-score
1,AACAATGC,0.152
2,CACTGCGG,-0.274
3,CAGAGGCC,-0.231
4,TCTCCACA,-0.0938
5,GCGCACGA,-0.106
6,GGATATCA,0.0457
7,GTATGGAC,0.0495
8,GAAAATCC,-0.0819
9,ACGAGATA,0.0636
10,AAGGACCC,-0.19
11,AAGACCCT,-0.279
12,GGAGTAGA,0.0177
13,ACGCGTAT,0.16
14,AGCCTAAG,-0.147
15,TATCGATA,0.224
16,ACCTGGAT,-0.141
17,CACACAGA,0.133
18,GTTGTCTA,-0.0351
19,ATCGACAG,-0.0324
20,CGTCTAAG,-0.0874
21,AGCTGGTC,-0.199
22,AACCTATA,0.166
23,CTTGTCGA,-0.222
24,ACTGTCCA,-0.0981
25,CCAAGACG,-0.218

row,Sequence,PBM 8-mer E-score
1,AAATTTGG,0.106
2,ATAAGCGC,0.0457
3,ATGAGTCC,-0.174
4,CAGTTCCG,-0.0936
5,CTGCACTC,-0.162
6,AGACCCCG,-0.261
7,AGAGCCAT,-0.0987
8,GCCAGTCC,-0.269
9,CGCGGCAG,-0.215
10,CCCACGTC,-0.236
11,GACAAAGC,-0.149
12,AATGAGGG,-0.139
13,CTTGCACA,-0.0147
14,GACCCCTA,-0.163
15,GATCGAGC,-0.169
16,ACTGTTTC,0.000661
17,AGCCCGAC,-0.235
18,ACCTATCT,-0.0902
19,ACATGCAG,0.0343
20,CTACCGAG,-0.064
21,CTTTAATA,0.344
22,AGACAAAC,0.174
23,CGTCGAAC,-0.118
24,AACAGGTA,0.0496
25,AATAGGCC,-0.095

row,Sequence,PBM 8-mer E-score
1,CTAGTGGC,-0.0715
2,CAAACGAA,0.00401
3,ATGAGGTC,-0.0821
4,AGTGGTCA,-0.088
5,ACTCAAAG,-0.0591
6,CCACCCGG,-0.138
7,AACAAACT,0.265
8,CTCAGCGA,-0.309
9,CCTCGACC,-0.286
10,CCGGATGA,-0.0733
11,AAGCGTGA,-0.115
12,AGCAAGCC,-0.259
13,AGTACATG,0.059
14,GTAGTCGA,0.0836
15,ATTACTGG,0.104
16,ACTATGTG,0.172
17,ACCTGACA,-0.133
18,GGGTGTAC,-0.158
19,CCGGATCC,-0.232
20,CCCAGTCA,-0.0997
21,AAGCATGT,0.00355
22,GATAAAGC,-0.0488
23,CAGCGGTC,-0.31
24,ACTTCCGG,-0.116
25,AAGGGAGC,-0.174

row,Sequence,PBM 8-mer E-score
1,ACCTGAAA,0.0497
2,GAGGGTAC,-0.202
3,AGGTGATC,-0.195
4,ACGTCCAT,-0.126
5,ATCCTACC,-0.158
6,CTCGCAGA,-0.248
7,AGCCGGTG,-0.261
8,TCCGCTCA,-0.198
9,ATTGAAAC,0.0966
10,GGGTTACA,-0.0134
11,ACGTATTA,0.356
12,CACTCGTA,0.0956
13,GGAATTGA,0.056
14,ACTAATGA,0.138
15,CAGGATTC,-0.0863
16,GCACCTTA,-0.0832
17,CGGACTAC,-0.111
18,CAGCAGGC,-0.262
19,ACTTAGAG,0.106
20,AGCGCAGG,-0.263
21,CGATCACG,-0.187
22,CGGCCACG,-0.363
23,CGCGAAGC,-0.268
24,ACAGTCTC,-0.129
25,ACGATAGT,0.121

row,Sequence,PBM 8-mer E-score
1,CTGGGGGC,-0.361
2,ATCGGTTG,-0.04
3,ATGAGGCG,-0.17
4,AGCAACGG,-0.0075
5,TGATCACA,0.0119
6,AGCAATGA,-0.143
7,GGAGTTCA,0.0321
8,CCTACGTA,-0.205
9,CTGGATCA,-0.136
10,AAATGGCG,0.112
11,CGAATTCA,-0.0127
12,AGCCAGGC,-0.198
13,TAGAACTA,0.226
14,CGGCAATA,0.172
15,TATTACAA,0.351
16,ACAACGAG,-0.0748
17,ATGCGGTA,-0.111
18,CCGTCTGC,-0.277
19,AAATGTCG,0.138
20,AGCCAAAT,-0.083
21,AATCTCAT,0.0925
22,CTAGGGGA,-0.24
23,CAGTCACA,-0.142
24,AAGGAGCA,-0.332
25,CACAATCC,0.0089

row,Sequence,PBM 8-mer E-score
1,CTCGACAG,-0.137
2,ATTTTTAG,0.219
3,ACTCACGA,-0.251
4,CTGGTGTC,-0.174
5,GACACTGC,-0.276
6,CCATAACC,0.00609
7,TCGTCGCA,-0.0186
8,GAGCTGCC,-0.23
9,CGGAAAGA,-0.0466
10,CCAAACTA,0.247
11,AACGAACT,0.127
12,AAGCACGA,-0.184
13,CACGCCAC,-0.146
14,CAGAGGTC,-0.199
15,GAGGGCGA,-0.156
16,CTGATTCC,-0.0539
17,GCATTTAC,0.181
18,AATAGTTG,0.309
19,CCCGATCC,-0.223
20,CGTCACGC,-0.146
21,AAAACAAA,0.216
22,GCTGGAAC,-0.187
23,GCACGTGC,0.0443
24,ACACCAAA,0.131
25,AGGTAACC,-0.13

row,Sequence,PBM 8-mer E-score
1,CGGATTCC,-0.244
2,ACAGCGCG,-0.1
3,ATCTGTGC,-0.012
4,CGAGGAGA,-0.34
5,AAGTCAGT,0.151
6,AGTAATGA,0.165
7,CGCGCCTC,-0.226
8,GCCCGACC,-0.267
9,AGTAGATA,0.202
10,AAGGCAAG,-0.172
11,AGGAAGTC,-0.26
12,AGTTGCCC,0.0202
13,ACATTGAT,0.246
14,AGCCCACC,-0.181
15,GGGAAAAA,-0.0493
16,AATAAACA,0.309
17,AGGTGGGA,-0.0733
18,GGCATATA,0.217
19,ACCGCTGA,-0.224
20,AATAGCAG,0.0422
21,AATCGGTG,-0.0611
22,ATTCTATC,0.184
23,AGGACACC,-0.165
24,CTAGGGTA,-0.0501
25,ACCTCGAC,-0.123

row,Sequence,PBM 8-mer E-score
1,GTTCCAAA,0.0409
2,GATCATGC,-0.141
3,CTTCAGCA,-0.0491
4,GTCTTGAA,-0.0988
5,AAGACTAG,0.09
6,AAGCCCGT,-0.0498
7,GCCGACAA,-0.0127
8,ATCTTTGA,0.0906
9,GCACAGCC,-0.169
10,ACCCGATG,-0.191
11,TAAAAACA,0.278
12,TGGGTAAA,0.114
13,CCAAACGC,-0.0718
14,GAGAAATC,-0.0566
15,ACGTCTCC,-0.283
16,GACTCCGA,-0.0775
17,AATGGGAG,-0.181
18,ACGTTGTG,-0.0716
19,CGGCGACA,-0.204
20,GACCTGAA,-0.131
21,CTAATCTC,0.0339
22,TCAGCTAA,-0.0514
23,CACGAGAG,-0.223
24,AATGGGAT,0.138
25,GATACATA,0.32

row,Sequence,PBM 8-mer E-score
1,CGCATGTC,-0.147
2,CGTAACCA,-0.118
3,CCTTCCCC,-0.27
4,CGGAACCG,-0.186
5,AAACGTTA,0.178
6,CCAAGGGC,-0.3
7,ACACCAGA,-0.0368
8,AGTCCTGA,0.0525
9,GCTCTATA,0.077
10,CGATCTCC,-0.203
11,TTTAGAAA,0.271
12,CGGTTTAC,0.0161
13,CTGACTGA,-0.0901
14,AATGGACT,-0.079
15,AATTATAT,0.461
16,AAAGTGGG,-0.0867
17,CAGCTAGC,-0.212
18,AGAACAAA,0.141
19,CGCGCGAG,-0.0934
20,CGATCTTA,0.0127
21,ACGGTCCT,-0.21
22,CGAAGAGC,-0.161
23,TTACGGAA,0.136
24,TAGTCAAA,0.179
25,CATTGAGC,-0.311

row,Sequence,PBM 8-mer E-score
1,CTTAAGAC,0.0361
2,CCGCGTAA,0.062
3,ATGCGCTA,0.062
4,CACTAAGC,-0.00659
5,AGCTTGAT,-0.107
6,ATAGCAAG,0.13
7,GCGTCAAC,-0.104
8,ATGATGGG,-0.0211
9,AGTGCCGG,-0.0286
10,AACCGTGT,-0.135
11,ACGAGACG,-0.22
12,GTTTGCCA,-0.124
13,AAACCCAT,-0.0863
14,CGGGGACA,-0.172
15,GTTAGTCA,0.19
16,CACGCAAG,-0.204
17,ACTGCACC,0.0311
18,ATACTATA,0.377
19,AAAATCCG,-0.0637
20,GCGTCTGA,-0.16
21,AAAATCGA,0.17
22,CTGAGGCA,-0.221
23,AACGATAT,0.168
24,CGTAAAAG,0.179
25,CGATGCGC,-0.161

row,Sequence,PBM 8-mer E-score
1,CAACTCAA,-0.00711
2,GACCGTAA,0.0868
3,AGACGGAC,-0.174
4,AAGACGGG,0.0468
5,TAGGACTA,-0.0422
6,AAATCTTG,0.0145
7,CAGCTCTC,-0.243
8,CAGCAGTA,0.0787
9,GCATTACC,-0.0713
10,ATCCCCCA,-0.166
11,ACGAGCGC,-0.16
12,AATTTGGC,0.161
13,AATTACGT,0.263
14,ATGTGATA,0.196
15,GCCTAAGC,-0.261
16,ACTGGAAG,-0.0943
17,GAACGCCC,-0.222
18,ACGGTAGC,-0.186
19,CTCGCTTC,-0.129
20,GGCGCAGA,-0.173
21,CTACAACC,0.099
22,ACATATGG,0.145
23,CAAACGTG,-0.038
24,AACGTCGA,-0.066
25,GGCCGGAA,-0.135

row,Sequence,PBM 8-mer E-score
1,CACAATAG,0.176
2,TAGCATAA,0.137
3,CCTATCGA,-0.0881
4,CGGCCGCC,-0.254
5,AATTGTGC,0.2
6,GCGTACGA,-0.0931
7,TAATAGGA,0.222
8,ACTTTATG,0.194
9,CGTCTAGA,-0.153
10,GATGCCAA,-0.105
11,CGTGCTCA,-0.162
12,CCACGACG,-0.122
13,CTCCCACC,-0.143
14,CGTCAGGC,-0.177
15,GAGGCCGA,-0.158
16,AAACATAG,0.216
17,ACTTCTAG,0.122
18,CGCACTCA,-0.118
19,CGATAGAG,-0.13
